Measured values: PubChem BioAssay AID1362 (SRMLSC, 2008)
The other results are listed elsewhere or left out. Shown are side measurements of this screen, not its main read-out; they come without a call. Compounds called inactive in the main read-out are mostly missing here.

Assay: growth inhibition of WT strain, primary screen, mitochondrial fusion inhibitor project, WT and mutant strains, chemical genetic (AID 1362); further: tested in S. cerevisiae
Details: mitochondrial fusion phenotypic screen, at 10 µM

SMILES	inhibition [%]
Cc1ccsc1C(=O)NCCC(c1ccccc1)c1ccccc1	45.2
Cc1ccccc1NC(=S)N(Cc1ccccn1)Cc1ccccc1Cl	52.1
CCOc1ccc(C(c2c(NC(=O)c3ccccc3)sc(C)c2C)N2CCN(CCO)CC2)cc1 (stereo not given)	36
O=C(NC1CCCCC1)c1sc(=S)n2c1[nH]c(=O)c1ccccc12	35.7
CCc1nn2cc(C(=O)c3cc(Cl)ccc3O)cnc2c1-c1ccc(F)cc1	69.3
CC(=O)OCC(=O)N1N=C(c2ccc3ccccc3c2)CC1c1ccccc1 (stereo not given)	38.5
CC(NC(=O)CSc1nc(=O)cc(N)n1CCc1ccccc1)c1ccccc1 (stereo not given)	12.7
CC(C)(C)c1ccc(-c2nnc(SCCC#N)n2C2CCCC2)cc1	19.6
CCn1c(CCCOc2ccc(Cl)cc2Cl)nnc1SCC(=O)Nc1cc(F)ccc1C	23
CCOc1ccc(NC(=O)C2CC(=O)N(C(C)C)C2)cc1 (stereo not given)	3.31
O=C1Nc2ccc(Cl)cc2[C@@](C#CC2CC2)(C(F)(F)F)O1	46.7
Cc1cc(C)c2sc(N(CCCN(C)C)C(=O)COc3ccc(Cl)cc3)nc2c1	86.7
FC(F)C(F)(F)C(F)(F)C(F)(F)c1cc(-c2ccccc2)n[nH]1	42.5
COc1cccc(N2C(=O)C(c3ccccc3)=C(c3nc4ccccc4s3)C2NC(C)=O)c1 (stereo not given)	6.32
C/C(=N\Nc1ccc(Cl)c(Cl)c1)c1ccc(-n2ccnc2)cc1	65.7
CN1C(=S)SC(C)(C)C1(C)NO (stereo not given)	6.85
O=C1c2ccccc2C(Nc2ccc(Cl)cn2)N1Cc1ccccc1 (stereo not given)	59.1
Cc1ccc([N+](=O)[O-])cc1NC(=S)NC(=O)CC(C)(C)C	38.3
COc1ccc(/C=N/Nc2nc(-c3ccc(Cl)cc3)cc(C(F)(F)F)n2)cc1OC	45.6
Cc1[nH]c2ccccc2c1/C=C(\C#N)C(=O)NC(C)c1ccccc1 (stereo not given)	7.25
COc1cccc(-c2cc3nc(-c4ccccc4)cc(N4CCCC(O)C4)n3n2)c1 (stereo not given)	28.9
CC(=O)Nc1ccc(C(=O)OCc2ccccc2Br)cc1	52.2
COC(=O)C1C(=O)NCC1c1ccccc1 (stereo not given)	16.2
FC(F)Oc1ccc(NC(=S)NCc2ccccc2)cc1Cl	36.8

SMILES	inhibition [%]
Cc1ccc(C)c(N2CCN(C(=O)c3ccccc3Br)CC2)c1	34.7
COc1cccc(-c2ccc(C#N)c(OC(=O)c3c(Cl)cccc3Cl)n2)c1	-3.87
CCOc1ccccc1N1CCN(C(=O)c2ccc3[nH]c4c(c3c2)CCCC4)CC1	-1.5
CC1CCN(C(=S)c2cn(Cc3cccc(F)c3)c3ccccc23)CC1	47.6
S=C(NCCSCc1ccc(Cl)cc1Cl)Nc1ccccc1	52.5
O=S(=O)(c1ccccc1)c1cnc(-c2cccnc2)nc1-c1ccc(Cl)cc1Cl	30.9
CCn1c(O)c(C2=c3ccccc3=NC2=O)c2cc(Br)ccc21	56.6
CC(C)(C)n1nnnc1C(c1ccc(F)cc1)N(Cc1ccc(F)cc1)Cc1ccco1 (stereo not given)	-8.88
S=C(Nc1cccc(Cl)c1)N(CCCN1CCCC1)Cc1cccn1Cc1ccc(Cl)cc1	63.1
Cc1ccc(S(=O)(=O)N(CC(=O)NCCC2=CCCCC2)Cc2ccccc2F)cc1	17.3
O=C(N=C1SCC(=O)N1c1ccccc1Cl)c1ccccc1	27.1
c1ccc(-c2c(-c3ccccc3)n(Cc3ccco3)c3ncnc(NCCCn4ccnc4)c23)cc1	32.2
Cc1noc2ncnc(Sc3ccccc3Cl)c12	97.7
Cc1ccc(C2CCN(C(=S)NC3CCCCC3)C2)cc1 (stereo not given)	61.5
O=C(Nc1nnc(C2=COCCO2)o1)c1ccc(Cc2ccccc2)cc1	49.6
Cc1ccccc1CN(C)CC(=O)Nc1ccccc1-c1ccccc1	19.1
c1ccc(Nc2scc(-c3ccccc3)[n+]2Cc2ccco2)cc1	51.4
CCOC(=O)c1c(NC(NC(=O)C(C)C)C(Cl)(Cl)Cl)sc2c1CCC2 (stereo not given)	20.4
Cc1ccc(NC(=O)c2cccs2)cc1S(=O)(=O)Nc1cccc(Cl)c1	35.2
CC1=CC(C)(C)N(S(=O)(=O)c2ccc(F)cc2)c2ccc(C)cc21	39.5
COc1ccc(/C=C/c2nc3ccccc3n2Cc2ccccc2OC)cc1	29
COc1ccc(OC)c(C2C=C(C34CC5CC(CC(C5)C3)C4)NC(=S)N2)c1 (stereo not given)	62
CCC(=O)NNc1ccc(Br)cc1	59
COc1cc2c(cc1NC(=O)CN1C(=O)NC3(CCc4ccccc43)C1=O)oc1ccccc12 (stereo not given)	35.4

SMILES	inhibition [%]
Cc1ccc2c(c1)c1c(n2CC(O)CNC2CCCCC2)CCCC1 (stereo not given)	87.5
O=C(NCC1(c2ccccc2)CCCC1)C1(c2ccccc2)CCCC1	-11.8
CCCC1=C(C(=O)OCC)C(c2ccc(NC(C)=O)cc2)NC(=O)N1 (stereo not given)	51.8
Cn1nc(C(F)(F)F)c2cc(C(=O)Nc3ccc(Cl)cc3)sc21	46.9
COc1cc(OC)nc(Oc2ccccc2C(=O)Oc2cccc(C)c2)n1	50.7
CCN(CC)C(=O)C1CC(=O)N(c2ccc(F)c(Cl)c2)C1 (stereo not given)	7.41
O=C(c1ccc(Cl)cc1)N1CCN(c2ccc(F)cc2)CC1	32.8
COc1ccc(Cn2c(-c3ccc(C)cc3)c[n+]3ccccc23)cc1	17.4
O=C1c2ccccc2OC2(C=Cc3ccccc3O2)N1Cc1ccccc1 (stereo not given)	10.8
COC(=O)CN(c1ccc2c(c1)OCCO2)S(=O)(=O)c1ccccc1	6.03
Nc1cc(=O)[nH]c(=S)n1-c1ccccc1	14.8
Cc1ccc(C(=O)CC(=O)c2cc(Cl)ccc2O)cc1	60.7
CCOC(=O)C1=C(C)NC(C)=C(C(=O)OC)C1c1cccc(Cl)c1Cl (stereo not given)	-14.4
Cc1nc2sccn2c(=O)c1CCN1CCC(=C(c2ccc(F)cc2)c2ccc(F)cc2)CC1	71.8
Cc1cc(C)c(C(N)=O)c(Nc2cccc3ccccc23)n1	28.7
CC(C)Cn1c(=O)c(C(=O)Nc2ccccc2S(N)(=O)=O)c(O)c2ccccc21	41.1
CC(NC(=S)NCCCN1CCOCC1)C1CC2CCC1C2 (stereo not given)	-3.38
O=C(Nc1nnc(-c2cccs2)o1)c1cc(-c2ccccc2)nc2ccccc12	62.4
CC1=NOC(=O)/C1=C\c1ccc(-c2ccc(Cl)cc2Cl)o1	81.9
CC(C)c1ccccc1NC(=S)NC1CCCCC1	63.1
CCOc1ccc(N2C(=O)CC(Sc3nnnn3-c3ccccc3)C2=O)cc1 (stereo not given)	41.2
Cc1ccc(NC(=S)NCCC(c2ccccc2)c2ccccc2)c(C)c1	34.6
